The source of these data is article PMC12820563, “FoxP3 forms a head-to-head dimer in vivo and stabilizes its multimerization on adjacent microsatellites”.

The other results are listed elsewhere or left out.

The test deals with T1, MBP-FoxP1dN (Mus musculus, UniProt P58462 326-579).
T1 sequence: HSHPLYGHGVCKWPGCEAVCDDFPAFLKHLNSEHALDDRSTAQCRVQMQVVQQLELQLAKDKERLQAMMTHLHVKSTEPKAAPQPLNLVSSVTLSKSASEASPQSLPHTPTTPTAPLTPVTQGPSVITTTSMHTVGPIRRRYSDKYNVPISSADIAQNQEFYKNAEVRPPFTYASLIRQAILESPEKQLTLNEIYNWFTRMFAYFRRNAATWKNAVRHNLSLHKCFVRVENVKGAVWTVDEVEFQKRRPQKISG
Description: PD-seq (MBP pull-down with sequencing); 20 mM Tris-HCl pH 7.5, 100 mM NaCl, 1.5 mM MgCl2, 0.4 uM protein, 0.1 uM dsDNA library, 30 min, room temperature, amylose pull-down; high values mean tight binding. The settings on record: protein: recombinant; tags: His6-MBP; chain copies: 2; dsDNA, one strand shown. In short, it runs like this:
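A fragment of mouse FoxP3 or FoxP1 without its N-terminus, carrying a His6-MBP tag and produced in E. coli, was combined at 0.4 µM with a 0.1 µM degenerate double-stranded DNA library filled in with Klenow. The mixture sat for 30 min at room temperature in Tris pH 7.5 buffer containing NaCl and MgCl2. Protein–DNA complexes were captured on amylose resin, washed three times, and the DNA was freed with proteinase K, barcoded by PCR and sequenced on Illumina. Binding is expressed as reads-per-million enrichment of pull-down over input, with replicates pooled.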
“GATGATTGTTCTCCCAGCTGATGAATTTCACGTATCGAGTAAACAAATTTTCCTAATCTTTCTGTTCAAGCGCCATCTAC”: the binding signal was 0.965 RPM ratio (pull-down/input). The same measure for “GATGATTGTTCTCCCAGCTGATGAATTTGCATAGTCGAGTAAACAAATTTTCCTAATCTTTCTGTTCAAGCGCCATCTAC”: 1.01 RPM ratio (pull-down/input); for “GATGATTGTTCTCCCAGCTGATGAATTGGTCGCCTCGAGTAAACAAATTTTCCTAATCTTTCTGTTCAAGCGCCATCTAC”: 0.913 RPM ratio (pull-down/input); for “GATGATTGTTCTCCCAGCTGATGAATTGACTCTGTCGAGTAAACAAATTTTCCTAATCTTTCTGTTCAAGCGCCATCTAC”: 1.01 RPM ratio (pull-down/input). As for “GATGATTGTTCTCCCAGCTGATGAATTGTAGCAATCGAGTAAACAAATTTTCCTAATCTTTCTGTTCAAGCGCCATCTAC”, the binding signal was 1.25 RPM ratio (pull-down/input). In the case of “GATGATTGTTCTCCCAGCTGATGAATTTTGTGCTTCGAGTAAACAAATTTTCCTAATCTTTCTGTTCAAGCGCCATCTAC” it was 1.09 RPM ratio (pull-down/input); in that of “GATGATTGTTCTCCCAGCTGATGAATTAACACATTCGAGTAAACAAATTTTCCTAATCTTTCTGTTCAAGCGCCATCTAC”, 1.18 RPM ratio (pull-down/input).

For the sequence “GATGATTGTTCTCCCAGCTGATGAATTTCACCAGTCGAGTAAACAAATTTTCCTAATCTTTCTGTTCAAGCGCCATCTAC”, the binding signal was 0.84 RPM ratio (pull-down/input). Turning to “GATGATTGTTCTCCCAGCTGATGAATTCCATTGATCGAGTAAACAAATTTTCCTAATCTTTCTGTTCAAGCGCCATCTAC”, the binding signal is 0.924 RPM ratio (pull-down/input).

As to “GATGATTGTTCTCCCAGCTGATGAATTTGCGCGATCGAGTAAACAAATTTTCCTAATCTTTCTGTTCAAGCGCCATCTAC”, the binding signal was 0.992 RPM ratio (pull-down/input).

As to “GATGATTGTTCTCCCAGCTGATGAATTGAGTGTCTCGAGTAAACAAATTTTCCTAATCTTTCTGTTCAAGCGCCATCTAC”, the binding signal is 0.863 RPM ratio (pull-down/input).

Consider “GATGATTGTTCTCCCAGCTGATGAATTGAAGTAATCGAGTAAACAAATTTTCCTAATCTTTCTGTTCAAGCGCCATCTAC”, for which the binding signal is 1.4 RPM ratio (pull-down/input). In the case of “GATGATTGTTCTCCCAGCTGATGAATTACTCCTGTCGAGTAAACAAATTTTCCTAATCTTTCTGTTCAAGCGCCATCTAC” it was 0.897 RPM ratio (pull-down/input). The same measure for “GATGATTGTTCTCCCAGCTGATGAATTCTTCAGATCGAGTAAACAAATTTTCCTAATCTTTCTGTTCAAGCGCCATCTAC”: 0.891 RPM ratio (pull-down/input); for “GATGATTGTTCTCCCAGCTGATGAATTTATCTATTCGAGTAAACAAATTTTCCTAATCTTTCTGTTCAAGCGCCATCTAC”: 1.24 RPM ratio (pull-down/input). The same measure for “GATGATTGTTCTCCCAGCTGATGAATTGCAGTGATCGAGTAAACAAATTTTCCTAATCTTTCTGTTCAAGCGCCATCTAC”: 1.11 RPM ratio (pull-down/input); for “GATGATTGTTCTCCCAGCTGATGAATTAATTTTCTCGAGTAAACAAATTTTCCTAATCTTTCTGTTCAAGCGCCATCTAC”: 0.924 RPM ratio (pull-down/input). Regarding “GATGATTGTTCTCCCAGCTGATGAATTGCCACACTCGAGTAAACAAATTTTCCTAATCTTTCTGTTCAAGCGCCATCTAC”, the binding signal was 1.1 RPM ratio (pull-down/input). In the case of “GATGATTGTTCTCCCAGCTGATGAATTGTGCAAGTCGAGTAAACAAATTTTCCTAATCTTTCTGTTCAAGCGCCATCTAC” it was 1.03 RPM ratio (pull-down/input); in that of “GATGATTGTTCTCCCAGCTGATGAATTTTTCTTATCGAGTAAACAAATTTTCCTAATCTTTCTGTTCAAGCGCCATCTAC”, 1.1 RPM ratio (pull-down/input); in that of “GATGATTGTTCTCCCAGCTGATGAATTGTTGCTCTCGAGTAAACAAATTTTCCTAATCTTTCTGTTCAAGCGCCATCTAC”, 1.39 RPM ratio (pull-down/input). In the case of “GATGATTGTTCTCCCAGCTGATGAATTGACCCCGTCGAGTAAACAAATTTTCCTAATCTTTCTGTTCAAGCGCCATCTAC” it was 0.918 RPM ratio (pull-down/input); in that of “GATGATTGTTCTCCCAGCTGATGAATTCAAGGGTTCGAGTAAACAAATTTTCCTAATCTTTCTGTTCAAGCGCCATCTAC”, 0.756 RPM ratio (pull-down/input).

With “GATGATTGTTCTCCCAGCTGATGAATTATAAAACTCGAGTAAACAAATTTTCCTAATCTTTCTGTTCAAGCGCCATCTAC”, the binding signal is 0.885 RPM ratio (pull-down/input).

Consider “GATGATTGTTCTCCCAGCTGATGAATTCGTCGCATCGAGTAAACAAATTTTCCTAATCTTTCTGTTCAAGCGCCATCTAC”, for which the binding signal is 1.06 RPM ratio (pull-down/input). The same measure for “GATGATTGTTCTCCCAGCTGATGAATTTTCATCGTCGAGTAAACAAATTTTCCTAATCTTTCTGTTCAAGCGCCATCTAC”: 0.816 RPM ratio (pull-down/input); for “GATGATTGTTCTCCCAGCTGATGAATTCAACCGGTCGAGTAAACAAATTTTCCTAATCTTTCTGTTCAAGCGCCATCTAC”: 0.776 RPM ratio (pull-down/input). The same measure for “GATGATTGTTCTCCCAGCTGATGAATTTGTTTTTTCGAGTAAACAAATTTTCCTAATCTTTCTGTTCAAGCGCCATCTAC”: 2.09 RPM ratio (pull-down/input); for “GATGATTGTTCTCCCAGCTGATGAATTAGGTAGTTCGAGTAAACAAATTTTCCTAATCTTTCTGTTCAAGCGCCATCTAC”: 0.881 RPM ratio (pull-down/input); for “GATGATTGTTCTCCCAGCTGATGAATTATATTAATCGAGTAAACAAATTTTCCTAATCTTTCTGTTCAAGCGCCATCTAC”: 1.1 RPM ratio (pull-down/input). As for “GATGATTGTTCTCCCAGCTGATGAATTACACCCTTCGAGTAAACAAATTTTCCTAATCTTTCTGTTCAAGCGCCATCTAC”, the binding signal was 1.15 RPM ratio (pull-down/input). “GATGATTGTTCTCCCAGCTGATGAATTCAAACAATCGAGTAAACAAATTTTCCTAATCTTTCTGTTCAAGCGCCATCTAC”: the binding signal is 1.81 RPM ratio (pull-down/input). The same measure for “GATGATTGTTCTCCCAGCTGATGAATTCGATAAGTCGAGTAAACAAATTTTCCTAATCTTTCTGTTCAAGCGCCATCTAC”: 0.86 RPM ratio (pull-down/input); for “GATGATTGTTCTCCCAGCTGATGAATTTGACGTTTCGAGTAAACAAATTTTCCTAATCTTTCTGTTCAAGCGCCATCTAC”: 0.918 RPM ratio (pull-down/input). As for “GATGATTGTTCTCCCAGCTGATGAATTTTCCCGCTCGAGTAAACAAATTTTCCTAATCTTTCTGTTCAAGCGCCATCTAC”, the binding signal was 0.808 RPM ratio (pull-down/input).

“GATGATTGTTCTCCCAGCTGATGAATTTACATCGTCGAGTAAACAAATTTTCCTAATCTTTCTGTTCAAGCGCCATCTAC”: the binding signal was 1.33 RPM ratio (pull-down/input).

Consider “GATGATTGTTCTCCCAGCTGATGAATTCGAACACTCGAGTAAACAAATTTTCCTAATCTTTCTGTTCAAGCGCCATCTAC”, for which the binding signal is 0.896 RPM ratio (pull-down/input). On to “GATGATTGTTCTCCCAGCTGATGAATTCTCCCTGTCGAGTAAACAAATTTTCCTAATCTTTCTGTTCAAGCGCCATCTAC”, for which the binding signal is 0.852 RPM ratio (pull-down/input).

As for “GATGATTGTTCTCCCAGCTGATGAATTTCATCCTTCGAGTAAACAAATTTTCCTAATCTTTCTGTTCAAGCGCCATCTAC”, the binding signal was 0.781 RPM ratio (pull-down/input). The same measure for “GATGATTGTTCTCCCAGCTGATGAATTAGCGCAATCGAGTAAACAAATTTTCCTAATCTTTCTGTTCAAGCGCCATCTAC”: 1.31 RPM ratio (pull-down/input).
